In the supplement of paper PMC3334620:
In all, about 33,000 sequences were measured (“E-score (-0.5 to 0.5)”: median about -0.035, highest 2% from about 0.34 on). Some of the results follow.

Target: T1, Mot3 (UniProt P54785)
T1 sequence: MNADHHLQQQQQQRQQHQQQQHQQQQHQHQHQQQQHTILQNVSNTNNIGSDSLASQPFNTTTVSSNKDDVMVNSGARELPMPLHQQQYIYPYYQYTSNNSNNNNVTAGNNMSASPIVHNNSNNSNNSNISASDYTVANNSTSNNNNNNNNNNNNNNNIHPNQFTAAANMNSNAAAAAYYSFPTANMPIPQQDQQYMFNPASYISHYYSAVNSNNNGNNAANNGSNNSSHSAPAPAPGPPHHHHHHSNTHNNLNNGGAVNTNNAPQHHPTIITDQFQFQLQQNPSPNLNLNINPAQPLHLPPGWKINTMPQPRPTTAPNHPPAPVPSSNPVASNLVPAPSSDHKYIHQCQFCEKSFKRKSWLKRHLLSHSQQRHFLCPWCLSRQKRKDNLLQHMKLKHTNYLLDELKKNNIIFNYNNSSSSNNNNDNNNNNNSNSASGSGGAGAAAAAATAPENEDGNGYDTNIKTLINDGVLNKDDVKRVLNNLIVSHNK
Test: PBM E-score (8-mer binding enrichment) (E-score (-0.5 to 0.5)); higher = stronger / more preferred TF binding; most listed sequences are background and not binding sites
Conditions: protein concentration: 200 nM; construct: GST-full length
Experimental: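 Universal 'all 10-mer' protein binding microarrays (Agilent AMADID 015681) probed with GST-tagged S. cerevisiae TFs (full-length or DBD) made by in vitro transcription/translation (PURExpress), about 100-200 nM. Bound TF was detected with fluorescent anti-GST. Each ungapped 8-mer (which stands for itself and its reverse complement) is scored by the PBM enrichment score (E-score), a modified Wilcoxon-Mann-Whitney statistic from -0.5 to +0.5, computed with the Universal PBM Analysis Suite. Scale: above 0.35 generally sequence-specific binding.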

Sequence	PBM E-score
CTCTGTGC	0.00777
CAAGATTA	-0.0424
CTTGTCTC	-0.215
AAACTTTC	-0.0392
AAGGAGCC	-0.108
AGGGGCGC	-0.0261
ACAGGCGT	0.172
ATCTTTAA	0.126
ACTTATAT	0.057
AACAGCTG	0.0407
AACTGCAC	-0.00246
GCTGAAGA	-0.127
AGAGAAAG	-0.213
CGACGCAG	0.0493
TCCCGTAA	-0.0758
AGATTGTG	-0.0264
ATTTGCTC	-0.15
CAGCTACC	-0.196
CAATCCGG	-0.311
ATTGCTCA	-0.018
GCTTTCGA	-0.12
AGTACACA	0.313
TCTCGACA	0.174
CTGGTTTA	0.0553
CACCTAAC	-0.0469

Sequence	PBM E-score
ATGTCAGG	0.231
CCCGAGGA	-0.214
ATTGTTTC	0.0123
CCACTTCG	-0.198
CAACTGTA	0.0387
CGTTCCGC	-0.116
GCTCCCAC	-0.262
AGCTGCCA	-0.175
CAAACTAC	0.05
ATTTTCAA	0.12
ACATAGAA	0.246
CCAGATCG	-0.125
CCCACTTA	0.00679
CGCAACAG	0.0587
TAAAGGTA	0.382
CACTAAAG	0.0255
CTTTGATC	-0.148
ATTACAAC	0.286
ATACCTCA	-0.146
CAGCGGAC	-0.264
AAGACAAA	0.0527
CAGCCCTG	-0.191
ACTTCCTC	-0.0876
CTGGATTC	-0.137
AATCGACA	0.201

Sequence	PBM E-score
ATTGCGAG	-0.222
TCTGGGAA	-0.243
AGCTACCT	0.0903
TATTTTCA	0.117
ACTCGTCG	-0.0932
CTGCTCCA	-0.0945
AGCTTTTG	0.101
TCGTCGAA	0.125
GTTCTAGA	-0.0908
GCCACCAA	-0.158
CACACCAA	0.104
ATGTCATA	0.172
ACTCAGGG	-0.143
CGAGCGCG	-0.144
GGACACAC	-0.079
CACTAGGG	-0.0853
AGTACAAC	-0.0278
CAATGCGG	0.0422
AAGTATAG	-0.0363
CCTAGTTC	0.0417
AGCCGCGC	-0.137
AGAGCGTG	0.0559
CCATGACC	-0.28
AATGAAGA	-0.05
CCTTCCAG	0.0889

Sequence	PBM E-score
GGCCCGCA	-0.212
AGATGCCA	-0.236
ATGCGAAA	0.0635
CTTATCTA	0.0435
AGGTGGCC	-0.221
CACAAGGG	0.0627
ACACAGGT	0.222
AGTGGGAC	-0.0842
ATAAGTAG	-0.00736
GAGTCTTA	-0.248
GGTCTCCA	-0.104
CCTTGACG	-0.13
AATTACGA	0.298
AGCGTAAT	0.18
TAAACCAA	0.13
ATTTACTC	0.159
TCCAGTCA	-0.208
GATTTAGC	-0.158
AGGATGTG	-0.0943
ACGGGCCG	-0.115
CGGCTGCC	0.00053
AGAACATG	0.259
GACGTCCC	-0.149
CCAACGGG	-0.172
CGGTATCA	0.029

Sequence	PBM E-score
CATGTATC	0.277
GCCCTTCA	-0.14
TGCTTAAA	0.0785
AGGTCGGA	-0.182
AGTCTTCA	-0.171
AGTAGGGG	-0.0677
AAAGTTGT	0.114
AACGAGGC	-0.0362
ATCCACAG	-0.0584
ATTATGAG	-0.081
CGAACGGC	-0.283
ATTAGACG	-0.0422
ATTGAATA	0.199
GAGCAACC	-0.0771
GGCTGTGA	0.0105
GGAGACCC	-0.0421
CTTCGGCC	-0.183
ATAGACAT	0.0987
GCATGACA	0.116
CTGCGTTA	0.141
AACCAAAT	0.127
GATTGCCA	-0.37
CTCACTGA	-0.0848
CACCGGCC	-0.0883
GGGCAGAC	-0.368

Sequence	PBM E-score
ACTTTCGA	-0.149
GCGTACGC	-0.129
AAAAGTTA	0.197
GGCAGTGA	-0.214
CAAAAGAG	-0.00708
AATCGGCA	-0.192
TCTTTCCA	-0.235
CCAGCCCG	-0.349
CCTACAGG	0.164
ATAACAAG	0.301
AAAGGTAA	0.324
AATTCAAC	0.0932
CGATGGAC	-0.0128
ATATTTGG	0.0141
GACTACGC	-0.0095
ACTATCCG	-0.0827
CTCCGGAA	-0.144
AGGATCTA	-0.245
GGAAAAGA	-0.0156
ATTACGGA	0.0377
AATCCCGT	0.0741
GATGTAAA	0.35
TCGTAACA	0.127
GGCCGCAC	-0.222
ATGGAACA	-0.111

Sequence	PBM E-score
AGGGAAAC	-0.154
AGAGGTAA	-0.019
GATCCGAA	-0.272
TATGATCA	0.00091
CGTTAAAC	0.194
CACTAAAA	0.189
CCCTTAGC	-0.281
AACGAAGA	-0.00236
CTCCTTGC	-0.0223
GGCCGAAA	-0.186
AGAATGGG	-0.245
AAACGGTC	-0.13
CCTATGGC	-0.0395
ACTCAGGA	0.0148
GCCGCGCA	-0.26
AAAACGTG	0.156
AAGATCGG	-0.159
GCGGTAAC	0.063
ATGGGTAA	0.0417
GTGGCAAC	-0.0139
CTTACTCC	0.0194
ACTCCCCA	-0.173
